The values below come from patent US20220185875A1 (JIANGSU HENGRUI MEDICINE, published 2022).

For assay [1], the target named is T1, mouse ANG2 (sinobiological, 50298-MOTH) (mouse, UniProt O35608 19-496, limits assumed).
T1 construct: Bought reagent, used as analyte in Biacore; also called murine ANG2
T1 sequence (looked up): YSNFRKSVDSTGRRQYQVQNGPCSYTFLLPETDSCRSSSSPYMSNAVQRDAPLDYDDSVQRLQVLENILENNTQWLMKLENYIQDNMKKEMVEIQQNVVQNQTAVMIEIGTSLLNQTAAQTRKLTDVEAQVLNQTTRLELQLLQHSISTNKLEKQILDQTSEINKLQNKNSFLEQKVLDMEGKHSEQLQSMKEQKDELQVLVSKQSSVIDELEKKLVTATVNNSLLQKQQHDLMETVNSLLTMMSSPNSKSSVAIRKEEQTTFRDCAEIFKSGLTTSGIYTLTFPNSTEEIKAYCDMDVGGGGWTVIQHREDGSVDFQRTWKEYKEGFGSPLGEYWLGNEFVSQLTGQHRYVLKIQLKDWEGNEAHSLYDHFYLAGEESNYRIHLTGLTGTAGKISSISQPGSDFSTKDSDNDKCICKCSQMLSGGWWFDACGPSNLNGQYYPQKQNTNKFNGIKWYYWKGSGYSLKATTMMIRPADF
As to the kind of experiment: SPR (Biacore T200), antibody captured on Protein A chip, antigen as analyte, 1:1 Langmuir fit. (In general: In SPR one partner is held on a chip, and binding of the other changes the refractive index at the surface.)

The target in assay [2] is T2, cyno VEGF (sinobiological, 11066) (cyno).
T2 construct: Bought reagent, used as analyte in Biacore
Described as above.

For assay [3], the target named is T3, human ANG2 (sinobiological, 10691-H08H) (human, UniProt O15123 19-496).
T3 construct: Bought reagent, used as analyte in Biacore
T3 sequence (looked up): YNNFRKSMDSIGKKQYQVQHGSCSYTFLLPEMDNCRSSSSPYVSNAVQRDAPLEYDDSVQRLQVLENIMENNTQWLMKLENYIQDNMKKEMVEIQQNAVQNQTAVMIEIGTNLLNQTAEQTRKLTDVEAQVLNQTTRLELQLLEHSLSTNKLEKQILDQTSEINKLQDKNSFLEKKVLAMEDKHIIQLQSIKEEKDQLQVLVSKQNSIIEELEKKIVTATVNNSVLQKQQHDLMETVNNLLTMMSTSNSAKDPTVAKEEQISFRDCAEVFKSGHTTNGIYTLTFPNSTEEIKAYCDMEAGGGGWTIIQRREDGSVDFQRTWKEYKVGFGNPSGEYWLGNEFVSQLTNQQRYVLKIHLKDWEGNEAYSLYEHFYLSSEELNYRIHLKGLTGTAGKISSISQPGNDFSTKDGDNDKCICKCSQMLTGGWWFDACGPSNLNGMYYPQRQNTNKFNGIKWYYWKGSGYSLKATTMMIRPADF
Described as above.

For another assay, the target named is T4, human ANG1 (RD,923-AN) (human, UniProt Q15389 20-498, limits assumed).
T4 sequence (looked up): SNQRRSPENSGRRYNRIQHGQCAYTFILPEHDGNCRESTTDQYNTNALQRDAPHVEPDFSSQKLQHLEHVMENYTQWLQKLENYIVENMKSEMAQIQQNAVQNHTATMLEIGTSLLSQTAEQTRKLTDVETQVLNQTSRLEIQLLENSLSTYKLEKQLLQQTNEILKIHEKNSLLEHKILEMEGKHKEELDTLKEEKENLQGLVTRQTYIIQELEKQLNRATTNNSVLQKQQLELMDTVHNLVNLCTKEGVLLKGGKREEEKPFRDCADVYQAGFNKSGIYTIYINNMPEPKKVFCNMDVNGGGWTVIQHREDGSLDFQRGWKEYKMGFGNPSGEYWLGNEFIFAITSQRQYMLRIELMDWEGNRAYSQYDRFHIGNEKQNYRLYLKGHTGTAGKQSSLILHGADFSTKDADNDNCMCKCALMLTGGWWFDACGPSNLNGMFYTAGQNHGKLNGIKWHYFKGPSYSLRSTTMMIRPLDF
As to the kind of experiment: SPR (Biacore T200), antibody captured on Protein A chip.

B1: hu15.E-V (bispecific antibody, human IgG1, kappa)
heavy: EVQLVESGGGLVQPGGSLRLSCAASGYDFTHYGMNWVRQAPGKGLEWVGWINTYTGEPTYAADFKRRFTFSLDTSKSTAYLQMNSLRAEDTAVYYCAKYPYYYGTSHWYFDVWGQGTLVTVSS[human IgG1 constant region not printed]GEVQLVESGGGLVQPGGSLRLSCAASGFTFSSYAMSWVRQAPGKGLEWVSTINSGGGRTGYADSVKGRFTISRDNSKNTLYLQMNSLRPEDTAVYYCNADHPQGYWGQGTTVTVSS
light: DIQLTQSPSSLSASVGDRVTITCSASQDISNYLNWYQQKPGKAPKVLIYFTSSLHSGVPSRFSGSGSGTDFTLTISSLQPEDFATYYCQQYSTVPWTFGQGTKVEIKRTVAAPSVFIFPPSDEQLKSGTASVVCLLNNFYPREAKVQWKVDNALQSGNSQESVTEQDSKDSTYSLSSTLTLSKADYEKHKVYACEVTHQGLSSPVTKSFNRGEC
notes: First chain: ranibizumab VH, IgG1 constant region, linker, humanized anti-ANG2 VHH hu15.E. Second chain: ranibizumab light chain; also called VEGF/ANG2 bispecific antibody hu15.E-V
Usually Kd stands for a measure of binding affinity in units of concentration. High values mean lower affinity, low ones higher affinity. For the molecule B1, the Kd in assay [1] is 0.51 nM; in assay [2] it was 0.005 nM; in assay [3], 0.4 nM. In addition, the binding result with human ANG1 (RD,923-AN) is recorded as “no binding”.

B2: hu14.2B-V (bispecific antibody, human IgG1, kappa)
heavy: EVQLVESGGGLVQPGGSLRLSCAASGYDFTHYGMNWVRQAPGKGLEWVGWINTYTGEPTYAADFKRRFTFSLDTSKSTAYLQMNSLRAEDTAVYYCAKYPYYYGTSHWYFDVWGQGTLVTVSS[human IgG1 constant region not printed]GEVQLVESGGGLVQPGGSLRLSCAASGFTFSDFGMSWVRQAPGKGLEWVSSITWSGGSTYYADSVKGRFTISRDNSKNTLYLQMNSLKPEDTAVYYCNADHPQGYWGQGTTVTVSS
light: B1 light
notes: First chain: ranibizumab VH, IgG1 constant region, linker, humanized anti-ANG2 VHH hu14.2B; Second chain: ranibizumab light chain; also called VEGF/ANG2 bispecific antibody hu14.2B-V
B2: the Kd in assay [1] worked out at 264 nM; in assay [2] it was 0.00436 nM; in assay [3], 1.15 nM. For the same molecule, the binding result in the assay with human ANG1 (RD,923-AN) is given as “no binding”.
